PubChem BioAssay AID624173 (National Center for Advancing Translational Sciences (NCATS), 2012)
Hit rate of the full screen: of about 410,000 compounds, about 490 (0.12%) were called active. Inconclusive means that the source gave no clear call. Such entries were picked first, then a sample of the others. Calls come from the whole dose curve; as a rule, active = well fitted inhibition curve with a large enough effect; inconclusive = small, poorly fitted or top-dose-only effect; inactive = flat fitted curve, though single readings scatter. A potency beside an inconclusive call is a rough fit, not a confirmed value.

target: pyruvate kinase (Trypanosoma brucei) (UniProt Q57TT1); test: qHTS of Trypanosoma Brucei Inhibitors; details: TbPYK enzyme, Kinase-Glo Plus ATP luminescence, 45 min; series mostly up to 76.8 µM; note: nearly all actives have a fitted effect of over 50% in size
Outline: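 TbPYK + substrate in 50 mM TEA pH 7.2, 100 mM KCl, 10 mM MgCl2, 0.05% BSA, 0.01% Tween-20; cpd pinned; ADP 130 uM final; 45 min RT; Kinase-Glo Plus 10 min; luminescence endpoint.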
Potency is the fitted concentration of half-maximal effect; tags give direction and shape of the fitted curve.

Question: Which Potency does the source give for CCOCCOC(=O)c1cccc(NC(=O)OCC)c1 here?
Answer: inactive

Question: For CC(Nc1ccc(-c2nc(-c3ccco3)no2)cc1[N+](=O)[O-])c1ccccc1 (stereo unspecified), which Potency is on record?
Answer: inconclusive: 50.1 µM [inhibitor, single point]

Question: COc1ccccc1CN1CCN(C2CCN(C(=O)Nc3ccccc3)CC2)C(=O)C1=O was tested. Which Potency did it give?
Answer: inactive

Question: How did the Potency turn out when Cn1c(=O)c2c(-c3ccc(C(C)(C)C)cc3)n(CC3CCCO3)cc2n(C)c1=O (stereo unspecified) was run?
Answer: inactive

Question: CN(C)c1ccc(C=c2c3ccccc3n3c2c2ccccc2[n+]3C)cc1 was tested. Which Potency did it give?
Answer: inconclusive: 50.1 µM [inhibitor, partial curve, poor fit]

Question: How did the Potency turn out when COc1cc(CNc2ccc(O)cc2)cc(Br)c1OCc1ccccc1F was run?
Answer: inconclusive: 2 µM [inhibitor, full curve, poor fit]

Question: How did the Potency turn out when COc1cc(OC)cc(C(=O)Nc2ccc3c(c2)OCCO3)c1 was run?
Answer: inconclusive: 35.5 µM [inhibitor, partial curve, poor fit]

Question: For COc1cccc(Nc2n[nH]c(=S)s2)c1, which Potency is on record?
Answer: inconclusive: 28.2 µM [inhibitor, partial curve, poor fit]

Question: With Cc1nc2scc(-c3ccccc3)c2c(=O)n1N=C1C=CC(=O)C=C1 as the compound, how does the Potency read?
Answer: active: 3.98 µM

Question: Brc1ccccc1-n1nnc(-c2cccnc2)n1 was tested. Which Potency did it give?
Answer: inactive

Question: Which Potency does the source give for Cc1csc(N=Nc2ccc(N(C)C)cc2)[n+]1[O-] here?
Answer: inconclusive: 31.6 µM [inhibitor, partial curve, poor fit]

Question: For Cc1nn(-c2ccccc2)c2sc(C(=O)N3CCc4ccccc4C3)cc12, which Potency is on record?
Answer: inactive

Question: C/C(=N\NC(=O)C1CC1c1ccccc1)c1cccs1 (stereo unspecified) was tested. Which Potency did it give?
Answer: inactive

Question: For COc1cc(OC)c(/C=N/n2c(C3CCCCC3)n[nH]c2=S)c(OC)c1, which Potency is on record?
Answer: active: 8.91 µM

Question: How did the Potency turn out when COc1cc(O)oc1C=Nc1ccc(C(=O)O)cc1 was run?
Answer: inconclusive: 31.6 µM [inhibitor, partial curve]

Question: For O=S(=O)(O)c1cc(O)c2cc(Nc3ccccc3)ccc2c1, which Potency is on record?
Answer: inconclusive: 35.5 µM [inhibitor, single point]

Question: Cc1ccn(C(=O)c2ccc(NC(=O)CC(C)C)cc2)n1 was tested. Which Potency did it give?
Answer: inactive

Question: For CCOC(=O)C1=C(C)NC(C)=C(C(=O)OCC)C1C(=O)OCC(=O)Nc1ccc(NC(C)=O)cc1, which Potency is on record?
Answer: inactive

Question: COc1ccc(OC)c(NC2c3ccccc3C(=O)N2Cc2ccc3c(c2)OCO3)c1 (stereo unspecified) was tested. Which Potency did it give?
Answer: inconclusive: 31.6 µM [inhibitor, partial curve]

Question: Which Potency does the source give for Cc1ccc(Cl)cc1N1CCN(C(=O)c2ccc3nc(N4CCC(C)CC4)sc3c2)CC1 here?
Answer: inactive

Question: Which Potency does the source give for CCCC(=O)Nc1ccc(Cl)c(NC(=O)CC)c1 here?
Answer: inactive

Question: How did the Potency turn out when CC(C)CCOc1ccccc1Cn1c(=O)sc2ccccc21 was run?
Answer: inactive

Question: For O=C1C(=Cc2ccccn2)CCc2ccccc21, which Potency is on record?
Answer: inconclusive: 35.5 µM [inhibitor, single point]

Question: CCN(CC)c1ccc(/C=C2/SC(=O)N(C(C)C)C2=O)o1 was tested. Which Potency did it give?
Answer: inconclusive: 28.2 µM [inhibitor, single point]

Question: For Cc1cc(OCc2n[nH]c(=S)n2-c2ccccc2)ccc1Cl, which Potency is on record?
Answer: inconclusive: 11.2 µM [inhibitor, partial curve]

Question: Which Potency does the source give for CN(C)c1ccc(/C=N/NC(=O)C2COc3ccccc3O2)o1 (stereo unspecified) here?
Answer: active: 28.2 µM

Question: Which Potency does the source give for C/C=C/c1ccc(OCC(=O)N2CCc3cc(OC)c(OC)cc3C2)c(OC)c1 here?
Answer: inactive

Question: For COc1ccccc1N1CCN(C(=O)c2ccc3nc(-c4ccco4)c(-c4ccco4)nc3c2)CC1, which Potency is on record?
Answer: inconclusive: 50.1 µM [inhibitor, single point]

Question: For Cc1nc(CS(=O)(=O)c2ccccc2)cc(N2CCOCC2)n1, which Potency is on record?
Answer: inconclusive: 50.1 µM [inhibitor, single point]

Question: Which Potency does the source give for CC12CN(Cc3ccccc3)CC(C)(CN(Cc3ccccc3)C1)C2=NO here?
Answer: inconclusive: 39.8 µM [inhibitor, single point]

Question: O=C(OCc1csc(-c2ccccc2)n1)c1ccccc1O was tested. Which Potency did it give?
Answer: inactive

Question: S=c1[nH]nc(-c2ccncc2)n1/N=C/C(Cl)=C\c1ccccc1 was tested. Which Potency did it give?
Answer: inconclusive: 0.794 µM [inhibitor, full curve, poor fit]

Question: Which Potency does the source give for Cc1ccc(CNC(=O)C2c3ccccc3C(=O)N3CCc4ccccc4C23)o1 (stereo unspecified) here?
Answer: inconclusive: 22.4 µM [inhibitor, partial curve]

Question: COc1ccc(OC)c(C(c2c(O)nc(SC)[nH]c2=O)c2c(O)nc(SC)[nH]c2=O)c1 was tested. Which Potency did it give?
Answer: inconclusive: 35.5 µM [inhibitor, partial curve, poor fit]

Question: How did the Potency turn out when COc1ccc(/C=N/n2c(-c3ccc(C)cc3)n[nH]c2=S)cc1OC was run?
Answer: inconclusive: 2.24 µM [inhibitor, full curve, poor fit]

Question: How did the Potency turn out when COCCn1c(SCCN2CCOCC2)nc2c1c(=O)[nH]c(=O)n2C was run?
Answer: inconclusive: 11.2 µM [inhibitor, partial curve, poor fit]

Question: How did the Potency turn out when COc1cccc(NC(=O)c2sc3nc4n(c(=O)c3c2C)CCC4)c1 was run?
Answer: inactive

Question: With O=C(CCc1ccc(O)c(O)c1)N/N=C/c1cc2c(cc1[N+](=O)[O-])OCO2 as the compound, how does the Potency read?
Answer: inconclusive: 50.1 µM [inhibitor, single point]

Question: With COc1cc(/C=C2/SC(=S)N(Cc3ccccc3)C2=O)cc(OC)c1O as the compound, how does the Potency read?
Answer: inconclusive: 31.6 µM [inhibitor, single point]

Question: For CCc1nc2c(OCCC3CCCCC3)cccn2c1N(C)C(=O)CC(C)C, which Potency is on record?
Answer: inactive

Question: For O=C(CCS(=O)(=O)c1cccc2nsnc12)NCc1ccccc1Cl, which Potency is on record?
Answer: inconclusive: 35.5 µM [inhibitor, partial curve]

Question: CCC(=O)N1CCC2(CC1)Oc1ccc(F)cc1C(=O)C21CC(c2ccccc2)=NO1 (stereo unspecified) was tested. Which Potency did it give?
Answer: inactive

Question: How did the Potency turn out when C[C@@H]1CCCCO[C@H](CN(C)C(=O)Nc2cccc3ccccc23)[C@@H](C)CN([C@H](C)CO)C(=O)c2cc(N(C)C)ccc2O1 was run?
Answer: active: 11.2 µM

Question: How did the Potency turn out when COc1cc(C2C(=O)N(C3CCCCC3)CC(=O)N2CCC2=CCCCC2)ccc1OC(C)C (stereo unspecified) was run?
Answer: inconclusive: 50.1 µM [inhibitor, partial curve, poor fit]

Question: How did the Potency turn out when O=c1c2ccccc2cnn1Cc1n[nH]c(=S)n1-c1ccc(Cl)cc1 was run?
Answer: inconclusive: 2.51 µM [inhibitor, partial curve, poor fit]

Question: For CSc1ncc(/C=C2/C(=O)NC(=O)N(C)C2=O)cn1, which Potency is on record?
Answer: inconclusive: 22.4 µM [inhibitor, partial curve, poor fit]

Question: For CSCC[C@H](NC(=O)C1CCN(S(=O)(=O)c2ccc(C)cc2)CC1)C(=O)NCC1CCCO1 (stereo partly specified), which Potency is on record?
Answer: inactive

Question: With Cc1ccc(NC(=S)NNC(=O)c2nnn(-c3ccccc3)c2C)cc1 as the compound, how does the Potency read?
Answer: inconclusive: 39.8 µM [inhibitor, single point]

Question: How did the Potency turn out when Cc1nc2sc(-c3ccccc3)cc2c(=O)n1-n1cccc1 was run?
Answer: inactive

Question: How did the Potency turn out when NC(=O)CCCn1c(C(=O)c2cc(Cl)c(N)c(Cl)c2)c2ccc([N+](=O)[O-])cc2[n+]1[O-] was run?
Answer: inactive

Question: How did the Potency turn out when N#Cc1ccccc1NC(=O)C(=O)NCCc1csc(-c2ccc(F)cc2)n1 was run?
Answer: inactive

Question: O=C1c2ccccc2-c2c1cccc2C(=O)N1CCN(C(=O)c2ccco2)CC1 was tested. Which Potency did it give?
Answer: inconclusive: 50.1 µM [inhibitor, single point]

Question: Which Potency does the source give for COc1ccc(Cl)cc1NC(=O)CN(C)C(=O)c1ccc(N2CCCCCC2)c([N+](=O)[O-])c1 here?
Answer: inactive

Question: How did the Potency turn out when COc1ccc(C(=O)NCc2n[nH]c(=S)n2-c2ccccc2)cc1OC was run?
Answer: inconclusive: 39.8 µM [inhibitor, single point]

Question: Sc1nnc(-c2ccc(Cl)cc2)n1Cc1ccccc1 was tested. Which Potency did it give?
Answer: inconclusive: 44.7 µM [inhibitor, partial curve, poor fit]

Question: Which Potency does the source give for O=C(CSc1nc2c([nH]c3ccccc32)c(=O)n1-c1ccccc1)Nc1ccc(Cl)c(Cl)c1 here?
Answer: inactive

Question: How did the Potency turn out when COc1cc(NC(=O)N2CCC3(CC2)Nc2ccccc2-n2cccc23)cc(OC)c1OC was run?
Answer: inactive

Question: Cc1cc(-c2n[nH]c(=S)n2-c2ccc(F)cc2)nn1C was tested. Which Potency did it give?
Answer: inconclusive: 2.82 µM [inhibitor, full curve]

Question: Cc1ccc2cc(CN(CC(C)C)C(=O)C3CCCO3)c(=O)[nH]c2c1 (stereo unspecified) was tested. Which Potency did it give?
Answer: inconclusive: 5.01 µM [inhibitor, partial curve, poor fit]

Question: For COCCn1c(C)cc(C2=NNC(=Nc3ccc(OC)cc3)SC2)c1C, which Potency is on record?
Answer: inconclusive: 35.5 µM [inhibitor, single point]

Question: Which Potency does the source give for COc1cc(C(=O)NC(=S)N(CCC#N)Cc2cccnc2)cc(OC)c1OC here?
Answer: inconclusive: 22.4 µM [inhibitor, partial curve]

Question: For CCN(CC)C(=O)c1ccc(CS(=O)(=O)c2ccc(OC)cc2)o1, which Potency is on record?
Answer: inconclusive: 31.6 µM [inhibitor, single point]

Question: COC(=O)C1=C(C)N(C)C(=O)NC1c1ccc(O)c(Cl)c1 (stereo unspecified) was tested. Which Potency did it give?
Answer: inactive

Question: For Cc1ccc(CN(C)C(=O)C2CCCN2C(=O)c2cccs2)o1 (stereo unspecified), which Potency is on record?
Answer: inconclusive: 35.5 µM [inhibitor, single point]

Question: CCC(C)n1c(-c2cccc(S(=O)(=O)N3CCOCC3)c2)n[nH]c1=S (stereo unspecified) was tested. Which Potency did it give?
Answer: active: 7.08 µM

Question: With Cc1ccc2nc(-c3ccc(S(=O)(=O)N4CCCCC4)cc3)cn2c1 as the compound, how does the Potency read?
Answer: inactive

Question: How did the Potency turn out when CC(=O)Nc1nc(C)c(C(C)=O)s1 was run?
Answer: inconclusive: 35.5 µM [inhibitor, single point]

Question: COc1ccccc1NS(=O)(=O)c1cc(N)ccc1N1CCCC1 was tested. Which Potency did it give?
Answer: inconclusive: 31.6 µM [inhibitor, single point]

Question: Which Potency does the source give for O=S(=O)(O)c1cc(O)c(N=Nc2ccc(O)cc2O)c2ccccc12 here?
Answer: inconclusive: 31.6 µM [inhibitor, partial curve, poor fit]

Question: Which Potency does the source give for Cc1ccc(C)c(NC(=O)Cn2c(=O)oc3cc(S(=O)(=O)NCc4ccccc4)ccc32)c1 here?
Answer: inactive

Question: With Cc1ccc(-n2c(-c3ccco3)n[nH]c2=S)cc1 as the compound, how does the Potency read?
Answer: active: 6.31 µM
